Data published in paper PMC6329626.

Substrate: Cc1onc(-c2c(F)cccc2Cl)c1C(=O)N[C@@H]1C(=O)N2[C@@H]1SC(C)(C)[C@@H]2C(=O)O
Experiment: cells, lysate or membranes named
Conditions: other: 100 nM CYP3A4 Supersomes, 10 min; pH 7.4; 37.0 °C

B1: recombinant human CYP3A4 (Homo sapiens) (protein)
chain: MALIPDLAMETWLLLAVSLVLLYLYGTHSHGLFKKLGIPGPTPLPFLGNILSYHKGFCMFDMECHKKYGKVWGFYDGQQPVLAITDPDMIKTVLVKECYSVFTNRRPFGPVGFMKSAISIAEDEEWKRLRSLLSPTFTSGKLKEMVPIIAQYGDVLVRNLRREAETGKPVTLKDVFGAYSMDVITSTSFGVNIDSLNNPQDPFVENTKKLLRFDFLDPFFLSITVFPFLIPILEVLNICVFPREVTNFLRKSVKRMKESRLEDTQKHRVDFLQLMIDSQNSKETESHKALSDLELVAQSIIFIFAGYETTSSVLSFIMYELATHPDVQQKLQEEIDAVLPNKAPPTYDTVLQMEYLDMVVNETLRLFPIAMRLERVCKKDVEINGMFIPKGVVVMIPSYALHRDPKYWTEPEKFLPERFSKKNKDNIDPYIYTPFGSGPRNCIGMRFALMNMKLALIRVLQNFSFKPCKETQIPLKLSLGGLLQPEKPVVLKVESRDGTVSGA
B1 showed a kcat of 197 ± 9 pmol·min^−1·nmol^−1 P450.
